{"source": "paper PMC10668032", "note": "Some of the results follow. At the low end of the ranking the order means little.", "data": [{"molecular_target": "SIX1-Q177R homeodomain (UniProt Q15475)", "assay": "universal protein binding microarray", "details": "Universal all-10-mer PBM (8x60K, AMADID 030236), 300 nM GST-tagged protein, Alexa Fluor 488 anti-GST; buffer, salt, pH and temperature not stated; high values mean tight binding; most listed sequences are background and not binding sites; double strand, one strand shown", "units": {"binding signal": "E-score"}, "values": [{"sequence": "TAGGAGCA", "binding signal": -0.0738}, {"sequence": "CACGCCGA", "binding signal": 0.194}, {"sequence": "TAAGGAGA", "binding signal": -0.142}, {"sequence": "ACGTCCGA", "binding signal": -0.0129}, {"sequence": "TACTCCTA", "binding signal": 0.0872}, {"sequence": "ATCTATGA", "binding signal": -0.0215}, {"sequence": "ATAATAGG", "binding signal": -0.12}, {"sequence": "CACTAATA", "binding signal": 0.162}, {"sequence": "ATGCAAAA", "binding signal": -0.257}, {"sequence": "GCTCCCCA", "binding signal": -0.0456}, {"sequence": "CTGCAGCA", "binding signal": 0.057}, {"sequence": "AACTACAG", "binding signal": -0.191}, {"sequence": "GAAGATAA", "binding signal": 0.0363}, {"sequence": "GCAGGAGA", "binding signal": -0.0678}, {"sequence": "GACCGACA", "binding signal": 0.00513}, {"sequence": "AATCCTTC", "binding signal": -0.125}, {"sequence": "AAGGCTAT", "binding signal": -0.284}, {"sequence": "ACGCGGCC", "binding signal": -0.0557}, {"sequence": "AAGATTAT", "binding signal": -0.239}, {"sequence": "CGATTTCC", "binding signal": -0.0584}, {"sequence": "AAACGCAG", "binding signal": -0.111}, {"sequence": "GTCACTAA", "binding signal": 0.0426}, {"sequence": "GCTTTCTA", "binding signal": -0.0518}, {"sequence": "AAAGATGC", "binding signal": -0.151}, {"sequence": "TAAATATA", "binding signal": -0.0572}, {"sequence": "AACTGCGC", "binding signal": -0.195}, {"sequence": "GGAAAGCC", "binding signal": -0.214}, {"sequence": "TTCGGCAA", "binding signal": 0.0441}, {"sequence": "GACTTGGA", "binding signal": -0.133}, {"sequence": "CGTGGGAA", "binding signal": -0.197}, {"sequence": "AATCAACC", "binding signal": -0.105}, {"sequence": "CGCTCACA", "binding signal": 0.166}, {"sequence": "AAGAAACA", "binding signal": -0.00752}, {"sequence": "AAATCCCT", "binding signal": -0.143}, {"sequence": "AAGCCTCG", "binding signal": -0.0203}, {"sequence": "GGTCCTAA", "binding signal": -0.143}, {"sequence": "AAAGGCGA", "binding signal": -0.132}, {"sequence": "CCTGCCCG", "binding signal": 0.13}, {"sequence": "AAGGGAAC", "binding signal": -0.00861}, {"sequence": "CTACGTAC", "binding signal": -0.00773}, {"sequence": "GGTTTTAC", "binding signal": 0.0525}, {"sequence": "AACGAATC", "binding signal": -0.0118}, {"sequence": "AGCCCCAC", "binding signal": 0.149}, {"sequence": "AAACGTGC", "binding signal": -0.23}, {"sequence": "GACTGGTA", "binding signal": -0.115}, {"sequence": "AGTTCCGC", "binding signal": -0.212}, {"sequence": "GAGTCCGC", "binding signal": -0.0132}, {"sequence": "ACCCAATA", "binding signal": 0.077}, {"sequence": "ATGACAAG", "binding signal": 0.0161}, {"sequence": "CCGAAGCG", "binding signal": -0.0138}, {"sequence": "ATTCAGTC", "binding signal": -0.24}, {"sequence": "ATCGAAAG", "binding signal": -0.122}, {"sequence": "AGTTGCTC", "binding signal": -0.0914}, {"sequence": "GTGGGACA", "binding signal": 0.171}, {"sequence": "GACAAGCC", "binding signal": 0.00254}, {"sequence": "AAGTTCTC", "binding signal": -0.229}, {"sequence": "AGCGAGTG", "binding signal": 0.268}, {"sequence": "TAATTCGA", "binding signal": -0.221}, {"sequence": "GAGTAAAA", "binding signal": 0.0792}, {"sequence": "CAGTGATA", "binding signal": -0.0632}, {"sequence": "CCAAGTGA", "binding signal": -0.132}, {"sequence": "ATCCACGA", "binding signal": -0.00615}, {"sequence": "GTTAGTAA", "binding signal": -0.0528}, {"sequence": "GCCAGTAA", "binding signal": -0.216}, {"sequence": "GACTCTGC", "binding signal": -0.0533}, {"sequence": "CGCTAGGC", "binding signal": -0.0922}, {"sequence": "CCACGACA", "binding signal": 0.27}, {"sequence": "ATGCAGAA", "binding signal": -0.255}, {"sequence": "GCACTAGA", "binding signal": -0.197}, {"sequence": "GTTCTAAA", "binding signal": -0.0375}, {"sequence": "CTGTATTC", "binding signal": -0.173}, {"sequence": "ACCCTGAT", "binding signal": 0.12}, {"sequence": "CCGAACTA", "binding signal": -0.0348}, {"sequence": "AGGGATAT", "binding signal": -0.0023}, {"sequence": "ACAGAAGT", "binding signal": -0.251}, {"sequence": "AGAATCGG", "binding signal": 0.0575}, {"sequence": "CTAGGACA", "binding signal": 0.162}, {"sequence": "ACCAAATG", "binding signal": 0.13}, {"sequence": "TCACCGGA", "binding signal": 0.076}, {"sequence": "GACCAGTA", "binding signal": 0.071}, {"sequence": "GAAGTAAC", "binding signal": -0.0331}, {"sequence": "ATACAGCC", "binding signal": -0.146}, {"sequence": "GGCGTAAA", "binding signal": 0.0835}, {"sequence": "GCATGCAA", "binding signal": -0.0161}, {"sequence": "ACGGATAC", "binding signal": 0.28}, {"sequence": "AGGCCGGA", "binding signal": -0.021}, {"sequence": "TAAATGGA", "binding signal": -0.0423}, {"sequence": "CGTCTCGA", "binding signal": 0.0661}, {"sequence": "AAAACGAT", "binding signal": -0.0921}, {"sequence": "ATTAGCTG", "binding signal": -0.192}, {"sequence": "ACCTACCG", "binding signal": -0.0295}, {"sequence": "CTGGCCAA", "binding signal": -0.0449}, {"sequence": "CATTAAAC", "binding signal": 0.0376}, {"sequence": "CTACGACA", "binding signal": 0.172}, {"sequence": "CAGTAGCC", "binding signal": 0.00409}, {"sequence": "GTATGCGA", "binding signal": 0.0192}, {"sequence": "AAACGGTT", "binding signal": -0.221}, {"sequence": "GAAGCCAC", "binding signal": -0.279}, {"sequence": "AGGGTCAG", "binding signal": 0.0629}, {"sequence": "CCGACAAA", "binding signal": -0.13}, {"sequence": "CAACGCTC", "binding signal": -0.123}, {"sequence": "ACTTCTGG", "binding signal": 0.0316}, {"sequence": "CGTCAGGC", "binding signal": -0.0745}, {"sequence": "ACCACGTC", "binding signal": 0.182}, {"sequence": "CCTGGTTC", "binding signal": 0.0333}, {"sequence": "GCGCCCAA", "binding signal": -0.0806}, {"sequence": "GGGGAAAC", "binding signal": 0.0588}, {"sequence": "ACAATAGG", "binding signal": -0.0569}, {"sequence": "CTCGAAAA", "binding signal": -0.281}, {"sequence": "TCACCCGA", "binding signal": -0.0103}, {"sequence": "CAAAGTGG", "binding signal": -0.0842}, {"sequence": "CAGAATAC", "binding signal": -0.0488}, {"sequence": "CTTTTGTA", "binding signal": -0.146}, {"sequence": "ACCTAACC", "binding signal": 0.11}, {"sequence": "GAAAACCC", "binding signal": -0.00386}, {"sequence": "ATTTTGAG", "binding signal": 0.0217}, {"sequence": "CTAAATCA", "binding signal": -0.131}, {"sequence": "GTTATAGA", "binding signal": 0.005}, {"sequence": "GAGCGCAA", "binding signal": -0.202}, {"sequence": "CTGCTGGC", "binding signal": -0.104}, {"sequence": "CCCGACCC", "binding signal": 0.187}, {"sequence": "CTGGGTTC", "binding signal": 0.11}, {"sequence": "GACAGCAC", "binding signal": 0.0155}, {"sequence": "CAGGTCGA", "binding signal": -0.0691}, {"sequence": "CTGACAAC", "binding signal": -0.00377}, {"sequence": "GTTCTAGA", "binding signal": -0.018}, {"sequence": "GATTACCA", "binding signal": -0.124}, {"sequence": "CGCCACCA", "binding signal": -0.0251}, {"sequence": "CCAATTGG", "binding signal": 0.121}, {"sequence": "GGTCAACA", "binding signal": 0.075}, {"sequence": "CTTACCTA", "binding signal": -0.106}, {"sequence": "CTGCCGAA", "binding signal": -0.037}, {"sequence": "GCGTAATA", "binding signal": -0.0788}, {"sequence": "ACATTAGT", "binding signal": 0.039}, {"sequence": "GATCCAGA", "binding signal": 0.0537}, {"sequence": "CTCTACCA", "binding signal": 0.0673}, {"sequence": "CTCCAAAC", "binding signal": 0.119}, {"sequence": "CTTGTCTA", "binding signal": -0.149}, {"sequence": "CCTCTAGC", "binding signal": -0.102}, {"sequence": "AGACCTAC", "binding signal": -0.131}, {"sequence": "CATCAGCC", "binding signal": -0.241}, {"sequence": "AGGTACAG", "binding signal": -0.114}, {"sequence": "CCTAGAGA", "binding signal": -0.171}, {"sequence": "ATGCCCCG", "binding signal": 0.015}, {"sequence": "GGTATTCA", "binding signal": 0.058}, {"sequence": "GAAACGAC", "binding signal": -0.0623}, {"sequence": "ACCACTGA", "binding signal": 0.0218}, {"sequence": "CAACGAAG", "binding signal": -0.0375}, {"sequence": "CGGCCTAA", "binding signal": 0.00626}, {"sequence": "CATGTCCC", "binding signal": -0.246}, {"sequence": "GACATTAC", "binding signal": -0.0797}, {"sequence": "CCGCACGG", "binding signal": 0.0336}, {"sequence": "CTAGACGA", "binding signal": -0.0204}, {"sequence": "CTGAGACC", "binding signal": -0.131}, {"sequence": "AATGGGTG", "binding signal": 0.281}, {"sequence": "ACTCCAGT", "binding signal": 0.139}, {"sequence": "GCCATGCA", "binding signal": -0.149}, {"sequence": "AATTTTTG", "binding signal": -0.0721}, {"sequence": "AAGATGCG", "binding signal": -0.0129}, {"sequence": "CACTTACA", "binding signal": 0.352}, {"sequence": "ACTAGATC", "binding signal": 0.06}, {"sequence": "AAGGAAAC", "binding signal": -0.0558}, {"sequence": "GCGAGCTA", "binding signal": -0.162}, {"sequence": "CATGATGA", "binding signal": 0.0428}, {"sequence": "ACAAGCAA", "binding signal": -0.108}, {"sequence": "ACTGAATA", "binding signal": -0.132}, {"sequence": "ATAGTTAA", "binding signal": -0.058}, {"sequence": "ACATCGAG", "binding signal": -0.0722}, {"sequence": "TCTGGCAA", "binding signal": -0.193}, {"sequence": "GAGTGGAA", "binding signal": -0.0479}, {"sequence": "GACCGATA", "binding signal": -0.0217}, {"sequence": "AGTATCGG", "binding signal": 0.208}]}]}
